Assay results from paper PMC8138007.
Results are given in words; binding and its absence hold for the method and conditions named. Binding seen in cells or lysates may run through a third protein. Some entries that bind do so weakly or less than the wild type. For some assays here: Where a sequence is shown, tags or fusion partners need not be part of it. Blank lines part the entries; values can stand above or below the molecule they belong to.

Amino acid sequences for entries named in this document (tags omitted). A change or cut given only in a name is not applied to a line headed by its entry. Chains listed by the source or under a name are the forms on record and can include a tag or linker.
UniProt P14618: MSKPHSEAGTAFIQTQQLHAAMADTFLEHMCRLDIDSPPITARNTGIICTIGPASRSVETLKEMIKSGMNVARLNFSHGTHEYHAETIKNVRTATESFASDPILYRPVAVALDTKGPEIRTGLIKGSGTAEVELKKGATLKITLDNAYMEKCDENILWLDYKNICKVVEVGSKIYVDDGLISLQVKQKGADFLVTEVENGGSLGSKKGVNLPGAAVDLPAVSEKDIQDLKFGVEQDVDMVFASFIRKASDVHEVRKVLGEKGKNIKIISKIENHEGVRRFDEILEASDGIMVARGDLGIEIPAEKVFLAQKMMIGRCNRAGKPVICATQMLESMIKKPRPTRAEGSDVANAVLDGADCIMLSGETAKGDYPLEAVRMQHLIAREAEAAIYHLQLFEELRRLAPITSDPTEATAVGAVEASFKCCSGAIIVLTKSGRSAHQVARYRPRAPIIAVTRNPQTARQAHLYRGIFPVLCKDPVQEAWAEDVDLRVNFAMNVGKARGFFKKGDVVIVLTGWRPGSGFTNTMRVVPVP
Pyruvate kinase M1 isoform (PKM1), endogenous (P14618-2, form named): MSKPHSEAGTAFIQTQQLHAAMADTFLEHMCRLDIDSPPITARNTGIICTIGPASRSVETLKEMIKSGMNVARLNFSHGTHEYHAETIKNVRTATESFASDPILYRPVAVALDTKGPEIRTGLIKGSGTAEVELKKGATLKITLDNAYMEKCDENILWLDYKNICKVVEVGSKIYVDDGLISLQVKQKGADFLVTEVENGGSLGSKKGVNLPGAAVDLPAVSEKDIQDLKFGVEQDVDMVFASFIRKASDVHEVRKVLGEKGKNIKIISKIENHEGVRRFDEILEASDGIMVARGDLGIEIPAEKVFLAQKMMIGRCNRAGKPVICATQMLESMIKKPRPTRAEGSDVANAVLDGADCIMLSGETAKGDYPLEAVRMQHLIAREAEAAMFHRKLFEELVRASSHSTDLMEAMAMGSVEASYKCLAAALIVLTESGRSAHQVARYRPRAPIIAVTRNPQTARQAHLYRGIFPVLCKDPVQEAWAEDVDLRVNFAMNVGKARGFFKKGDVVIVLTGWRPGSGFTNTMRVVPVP
UniProt P30613: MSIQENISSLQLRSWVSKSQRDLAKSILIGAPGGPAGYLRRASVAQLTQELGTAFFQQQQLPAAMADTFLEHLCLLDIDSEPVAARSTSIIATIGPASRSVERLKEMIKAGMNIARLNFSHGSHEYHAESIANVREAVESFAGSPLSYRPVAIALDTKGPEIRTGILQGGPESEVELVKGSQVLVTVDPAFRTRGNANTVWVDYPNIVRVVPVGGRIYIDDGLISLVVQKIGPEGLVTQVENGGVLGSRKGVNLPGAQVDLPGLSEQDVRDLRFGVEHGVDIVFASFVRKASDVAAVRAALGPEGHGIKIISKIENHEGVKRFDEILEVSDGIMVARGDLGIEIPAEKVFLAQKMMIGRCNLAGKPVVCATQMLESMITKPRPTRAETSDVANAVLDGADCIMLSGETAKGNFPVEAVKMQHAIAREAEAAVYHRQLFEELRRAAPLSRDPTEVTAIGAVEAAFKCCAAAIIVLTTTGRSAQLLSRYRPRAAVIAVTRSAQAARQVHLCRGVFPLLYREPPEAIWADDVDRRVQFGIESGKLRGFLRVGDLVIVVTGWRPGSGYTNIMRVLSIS

Tests used:
[1] = target: T1, Testes-specific protease 50 (TSP50), endogenous (human (endogenous in Huh7 and Bel7402)) (UniProt Q9UI38); experiment: co-IP; Huh7 and Bel7402 cells, immunoprecipitation with anti-TSP50 antibody (Pierce Crosslink Immunoprecipitation kit), Western blot with anti-PKM2, anti-PKM1 or anti-PKLR
T1 sequence: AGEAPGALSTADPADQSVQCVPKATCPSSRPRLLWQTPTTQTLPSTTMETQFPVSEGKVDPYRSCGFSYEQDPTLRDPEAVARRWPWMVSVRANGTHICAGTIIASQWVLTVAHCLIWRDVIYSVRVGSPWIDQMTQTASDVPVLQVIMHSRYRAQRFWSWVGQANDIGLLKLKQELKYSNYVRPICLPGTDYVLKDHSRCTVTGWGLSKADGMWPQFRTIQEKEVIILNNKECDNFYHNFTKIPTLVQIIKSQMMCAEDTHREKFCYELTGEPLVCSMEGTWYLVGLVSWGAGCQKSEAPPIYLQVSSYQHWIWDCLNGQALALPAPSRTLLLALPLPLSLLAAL

GST-tagged TSP50 (human) = target: T2, GST-tagged TSP50 (human) (UniProt Q9UI38); experiment: pull-down; GST-TSP50 as bait on gel suspension, mixed with target protein in GST pull-down binding buffer at 4 °C overnight; Western blot with anti-PKM2 and anti-GST; methods: total protein of Huh7 or Bel7402 cells (RIPA); legend: proteins purified in B21 bacteria; only the target purified
T2 sequence: T1 sequence

[2] = target: Pyruvate kinase M2 isoform (PKM2), endogenous (human (endogenous in Huh7, Bel7402 and L02)) (UniProt P14618); experiment: co-IP; IP with anti-PKM2 from L02 cells (TSP50 overexpressed) and Huh7 and Bel7402 cells (TSP50 knocked down), Western blot for KAT9 and SIRT2

Molecule: Flag-tagged PKM2 (from UniProt P14618 1-531) (enzyme)
binding (GST-tagged TSP50 (human)): binds

Molecule: Pyruvate kinase M1 isoform (PKM1), endogenous (from UniProt P14618-2 1-531) (enzyme)
binding [1]: no binding

The next lines start with the values.

binding [1]: binds
Molecule: Pyruvate kinase M2 isoform (PKM2), endogenous (from UniProt P14618 1-531) (enzyme)

binding [1]: no binding
Molecule: PKL/R, endogenous (from UniProt P30613 1-574) (enzyme)

binding [2]: binds
B1: Deacetylase SIRT2, endogenous (enzyme, UniProt Q8IXJ6 1-389)
chain: MAEPDPSHPLETQAGKVQEAQDSDSDSEGGAAGGEADMDFLRNLFSQTLSLGSQKERLLDELTLEGVARYMQSERCRRVICLVGAGISTSAGIPDFRSPSTGLYDNLEKYHLPYPEAIFEISYFKKHPEPFFALAKELYPGQFKPTICHYFMRLLKDKGLLLRCYTQNIDTLERIAGLEQEDLVEAHGTFYTSHCVSASCRHEYPLSWMKEKIFSEVTPKCEDCQSLVKPDIVFFGESLPARFFSCMQSDFLKVDLLLVMGTSLQVQPFASLISKAPLSTPRLLINKEKAGQSDPFLGMIMGLGGGMDFDSKKAYRDVAWLGECDQGCLALAELLGWKKELEDLVRREHASIDAQSGAGVPNPSTSASPKKSPPPAKDEARTTEREKPQ
